# From the BET-seq Pho4 binding data (Le et al. 2018)
# Some of the results follow. Values were computed here from the reads of four pooled replicates and scatter widely.
# Target: T1, Pho4 (S. cerevisiae) (UniProt P07270)
# T1 sequence: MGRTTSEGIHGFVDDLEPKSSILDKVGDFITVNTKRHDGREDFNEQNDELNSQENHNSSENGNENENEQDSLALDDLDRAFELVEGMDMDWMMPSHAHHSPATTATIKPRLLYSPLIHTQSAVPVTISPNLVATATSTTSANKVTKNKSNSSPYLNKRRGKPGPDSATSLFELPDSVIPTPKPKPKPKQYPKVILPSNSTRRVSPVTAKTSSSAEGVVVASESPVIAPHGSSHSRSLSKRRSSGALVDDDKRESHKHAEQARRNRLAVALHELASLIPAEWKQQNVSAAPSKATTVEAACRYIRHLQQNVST
# Assay: relative binding free energy (BET-seq); higher = weaker binding
# Settings: reference: library average
row,Sequence,relative binding free energy [kcal/mol]
1,ATATTCACGTGCGCTT,0.18
2,ACGTACACGTGTGTGA,0.12
3,AGTGTCACGTGGAATA,0.08
4,TTTCACACGTGAATTT,0.27
5,TTTTTCACGTGCTTCG,0.33
6,ATGGGCACGTGTACTG,-0.08
7,TATTTCACGTGATGGC,0.42
8,ACGGGCACGTGGGAAT,-0.11
9,GTTGTCACGTGTAAAG,0.29
10,TAAAGCACGTGGGGCT,-0.22
11,ACTTTCACGTGAGTTG,0.38
12,TCAGTCACGTGGGAGG,0.01
13,AGTTACACGTGGGGAC,-0.05
14,GTTAGCACGTGGGAGA,-0.08
15,TGCGACACGTGGGGAT,-0.06
16,TGGGGCACGTGATAAG,-0.11
17,TAGTACACGTGGATTA,0.09
18,GGTAGCACGTGACTGT,-0.03
19,GGGGGCACGTGTACTT,-0.1
20,GGAGTCACGTGTAAGG,0.15
21,AGGTGCACGTGAGGAC,0.16
22,GGGTTCACGTGTTAGA,0.33
23,ACGAGCACGTGTTGTT,-0.11

row,Sequence,relative binding free energy [kcal/mol]
1,GATTGCACGTGTAGGA,0.11
2,CAGTTCACGTGAGAGG,0.43
3,TTGGTCACGTGAGCGA,0.15
4,GGTATCACGTGATCTG,0.14
5,TGAAACACGTGTTTAT,0.08
6,CTGGTCACGTGCTGTA,0.14
7,TACGGCACGTGGAGAG,-0.07
8,GGTCGCACGTGAGTTT,0.18
9,GTAATCACGTGAGGGT,0.38
10,ATAGTCACGTGATCGG,0.2
11,AAGGACACGTGGAGTG,-0.16
12,ATTTTCACGTGGTCTT,0.17
13,AGGGGCACGTGTGCGC,-0.1
14,GTGGCCACGTGGTTAG,-0.03
15,CGGGTCACGTGACGTG,0.12
16,AAATGCACGTGGTTTA,-0.12
17,AATTGCACGTGTCTGG,0.06
18,ATCTACACGTGTTTTG,0
19,CGTTTCACGTGTTTAT,0.35
20,ATTATCACGTGTGCGC,0.28
21,ATCTTCACGTGATGTT,0.4
22,AGGTACACGTGAGAGT,0.44
23,ATGAGCACGTGTTGGA,-0.11

row,Sequence,relative binding free energy [kcal/mol]
1,GGGTACACGTGGTGTC,0
2,AAGGGCACGTGCGGAT,-0.17
3,TCAGGCACGTGTGAGG,-0.04
4,GAGGTCACGTGATGGA,0.39
5,TAGGTCACGTGCTTAG,0.03
6,AAGATCACGTGTAGTG,0.04
7,CAGTTCACGTGTTGGG,0.3
8,TGAAACACGTGGTTTT,0.11
9,TAACTCACGTGTTTGC,0.35
10,GAGGACACGTGAGTTT,0.33
11,GGTTACACGTGTCCTT,0.33
12,TGGACCACGTGGTTTA,-0.03
13,AGGGACACGTGTTTTT,0.12
14,AGAATCACGTGAATGT,0.34
15,GGGTGCACGTGGGGTG,-0.07
16,GCGGTCACGTGTTGGC,0.2
17,TTTACCACGTGGGTGA,-0.24
18,AGTTTCACGTGTGCGC,0.25
19,GGGAGCACGTGAGCGA,0.32
20,TTTTTCACGTGCACGG,0.19
21,AGCATCACGTGGGTAT,0
22,GTTCACACGTGATGTG,0.31
23,GTTTTCACGTGTCTCT,0.26

row,Sequence,relative binding free energy [kcal/mol]
1,ATGGACACGTGCGGCT,0.08
2,AAAGGCACGTGGTGTA,-0.15
3,TTATACACGTGTTGTC,-0.03
4,TGCCTCACGTGTGGAT,0.19
5,TGGCCCACGTGGAGGT,-0.2
6,TATTGCACGTGATGGT,0.24
7,TGATGCACGTGTGTAA,-0.03
8,GAATGCACGTGTTGTA,0.03
9,ATGTTCACGTGTGGAA,0.25
10,CAATGCACGTGAGGGA,0.25
11,ATATTCACGTGAGGGC,0.51
12,GGTTGCACGTGAGCTG,0.24
13,GGGTCCACGTGGCTTG,0.03
14,AGGGACACGTGATGGA,0.16
15,GGAGGCACGTGTCGTG,0.03
16,CGGCTCACGTGATGGT,0.28
17,TCATACACGTGTGATT,0.21
18,TTCTACACGTGGGGAG,-0.1
19,AGGACCACGTGAGGGT,0.16
20,TTTACCACGTGGTTAT,-0.15
21,CTTGGCACGTGGGTTT,-0.23
22,GTGATCACGTGGCGTG,0.04
23,TGTGTCACGTGCTGAA,-0.03

row,Sequence,relative binding free energy [kcal/mol]
1,TAGATCACGTGTGGTA,0.03
2,GGATGCACGTGTACGT,0.09
3,GTGATCACGTGGCGTT,0.1
4,AATAGCACGTGTGATA,0.01
5,TTTACCACGTGGTCGT,-0.08
6,AGGTTCACGTGAGGAC,0.38
7,GTGAACACGTGCGTGG,-0.1
8,ATGTGCACGTGATGAG,-0.01
9,GCTATCACGTGGATGG,0.16
10,AGTGGCACGTGGTGCC,-0.17
11,TGCACCACGTGGTGGT,-0.05
12,TGGTCCACGTGGGTCA,-0.04
13,CGTGTCACGTGTCGTT,0
14,GTGTGCACGTGTCAAT,-0.01
15,AGCTTCACGTGGTTTT,0.22
16,AGTTGCACGTGAGGGT,0.09
17,TGTAACACGTGTAGAT,0.12
18,AGGCTCACGTGAAGCG,0.53
19,ATAGGCACGTGTGTGT,-0.12
20,AGTTTCACGTGACAGG,0.4
21,TGCTTCACGTGTAATG,0.18
22,TGAGCCACGTGTTTGG,0.02
23,ATAATCACGTGAATTT,0.24
